Whole data set: some 33,000 sequences, median “E-score (dimensionless, -0.5 to 0.5)” near -0.058, cut for the highest 2% near 0.35. The list shows a part of the results.
system: MvaT; assay: PBM 8-mer E-score (mean of HK and ME arrays) (E-score (dimensionless, -0.5 to 0.5)); higher = stronger relative binding preference; most listed sequences are background and not binding sites
In short: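 Full-length P. aeruginosa MvaT, with glutathione S-transferase fused to its N-terminus (cloned into pTH6838 by isothermal assembly), was tested by protein binding microarray using a previously described protocol. Two universal double-stranded 60-mer arrays (ME and HK) were used, each with a constant 25-mer primer region and a variable 35-mer region covering all 8-mers. The rank-based 8-mer E-score (-0.5 to 0.5) is the mean of the two arrays, parsed with a custom Python script.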

Sequence | PBM 8-mer E-score
ACTACAAG | 0.116
ACTTCGCG | 0.0619
CGACGCAC | -0.14
GATGGACC | -0.232
AGCCTATG | -0.0968
GTTCTCAA | 0.0528
GACATGAA | 0.166
CGCTTTCA | -0.1
CGCGCACG | -0.134
CTACAAGA | -0.09
CGTCTGTC | -0.0927
AATACTCG | 0.125
AACTATAA | 0.382
TAAGCCTA | -0.0915
CTTCTAAC | 0.0486
CAGCTCCG | -0.305
CTCTAACC | -0.139
AAGGTATA | 0.152
ATCCGCGA | 0.0327
CACCCACC | -0.151
CCCCAGAA | -0.23
TAAGCGCA | 0.14
ACCAATGG | -0.0993
ACTTCCCT | -0.00654
CAGGCGTA | -0.114

Sequence | PBM 8-mer E-score
TAAGTTGA | 0.29
CCCAGAGC | -0.207
GGCATACA | 0.0623
ACAGTCAC | -0.204
GGTTCACA | -0.00819
GAGTGCCC | -0.187
AGAGCTCT | -0.156
AGCCCGAG | -0.164
CGGCCAGC | -0.228
GGCGATGA | -0.16
ACCAGCAC | -0.0925
CCAAGCCG | -0.322
AATTGTCG | 0.185
CCTCGAAA | -0.0711
AAGGAGTA | -0.154
CGACGTGC | -0.214
ATCGTCTA | -0.0142
CGAACTTA | 0.229
AGTCGACA | 0.0665
CTTAACTC | 0.0392
TATGGCCA | -0.0429
ACCATGCG | -0.128
GGGTCGCA | -0.14
ATCGCCAA | -0.0435
GCTCTTGA | -0.154

Sequence | PBM 8-mer E-score
CGCCTATC | -0.126
CATTGGTA | -0.109
ATGTCCTC | -0.129
CTCACACC | -0.0325
AGTCATGG | -0.0721
ACTACCAG | -0.12
CGTGTGGC | -0.0386
TCTATCAA | 0.0716
GCTATGCC | -0.26
CCCTGCTA | -0.287
AGAGAATG | -0.0193
AATAAAGT | 0.372
ACTCCTCA | -0.205
AGGTCGTA | -0.122
AGTACAGC | -0.0804
AAAACCGC | 0.058
AGTGCAGA | 0.0261
AACAAGTT | 0.251
AAACTCCA | -0.011
ATACAATC | 0.18
ACGGGGCG | -0.229
CATGGCGC | -0.263
CACGACGC | -0.183
CGCCCGCC | -0.17
ACGACTAG | -0.185

Sequence | PBM 8-mer E-score
AACGCATG | -0.0851
ATACATCG | 0.0832
AGATTTGC | -0.0458
ATCCATTA | 0.233
CGCATCCG | -0.222
GTGCGTTA | 0.133
TGATACAA | 0.145
GATGGCCA | -0.128
ACTCCCAC | -0.103
CACCCTGA | -0.109
GACAGGAA | -0.051
ACCATTCT | 0.00713
CTGTATGA | -0.0996
ACGTAGAG | -0.167
TAACTACA | 0.249
CAAAACAC | 0.0954
CACCCTCC | -0.163
CGATCCGA | -0.123
CTGCGCAA | -0.0818
AGTGGAAG | 0.0157
ATGAACTG | 0.013
CCCGACTC | -0.0416
GATTGTTA | 0.204
CCAGTAGC | -0.0641
CCTCAGCG | -0.282

Sequence | PBM 8-mer E-score
AACGAGCT | -0.173
AAACCTTC | -0.076
TAACGCCA | -0.0994
TGATTACA | 0.175
AGCTACTG | -0.0992
CAACCTCC | -0.237
ATGCCTAG | -0.0922
AAGATGAA | 0.0102
ACCCCTAT | 0.0101
AGTATCCA | 0.00667
ATCAAGAA | 0.117
CAGTGTGA | 0.0669
CGATGTGC | -0.0977
GTCAACGA | -0.153
CGACCTGC | -0.202
AGCTGTCC | -0.182
TACGAAAA | 0.228
ACTAAAAC | 0.289
CCCCGACC | -0.336
CGGCAACA | -0.0512
AATAATGC | 0.384
CGTCACCA | -0.18
AAACCTGC | -0.0401
TACGCCTA | -0.261
AGAGTTTG | 0.178

Sequence | PBM 8-mer E-score
GGGTGTCA | -0.0502
TAGAGCGA | -0.181
CGGATCTA | -0.228
CTCTTACA | 0.0256
CGGAGCAA | -0.137
ACACGCCA | -0.165
ACTCCCGC | -0.2
ATGTAAAC | 0.123
GCCCGCAA | -0.0618
AAAGGACT | 0.00635
GTTCGCCA | -0.143
GAATAGGA | -0.0282
ATCATCAT | 0.0279
ACAGATAT | 0.167
AAACTAAG | 0.304
ACGTTTCG | -0.178
CATCAAAA | 0.0407
ATGCACCC | -0.0724
AGCCCACA | -0.0622
ACATGGAC | -0.0248
GGGGTATA | -0.000143
CGGCATTC | -0.142
GGACAAAA | 0.124
CACTCGAC | -0.125
CTGGGAAG | -0.116

Sequence | PBM 8-mer E-score
AAAGGGCC | -0.251
CTGAGAAC | -0.0775
TCATTTCA | 0.0512
CAAATGTC | 0.00575
ATTGGCGC | -0.0226
CCAGGGCC | -0.325
GGAATGGA | -0.112
AGACCGAG | -0.182
GCGAATAA | 0.291
AAGTCCAG | -0.0458
AAAAAGAG | 0.0446
CGGGACGA | -0.147
ACTTAAGC | 0.116
AATTCTAC | 0.188
ACGATAAG | 0.0654
ACGGGCTA | 0.0215
GCTTGCAA | -0.094
TAATCTCA | 0.212
ACATGGCG | -0.0804
ATAGGTAG | 0.0553
AAGTTAAA | 0.411
CCGCGACG | -0.107
CTTCTGAA | 0.0127
CCCGAAAA | -0.061
AGTGTGCC | -0.124

Sequence | PBM 8-mer E-score
CGGGGGTA | -0.267
CATGTACC | 0.169
GCCTGCCA | -0.193
AATGCTGT | 0.153
AGGCTAAT | 0.0247
CACGCTTA | -0.0488
CATAAGAC | 0.088
ATGGGTAG | -0.0164
TGACCGAA | -0.12
ACTGTAAA | 0.266
AAACCAAA | 0.254
GCAGCACA | -0.163
GGCAGTAA | 0.156
GCCGACAC | -0.139
GAGGATTA | -0.0188
GAACTTGC | 0.23
CTTCGATA | 0.0794
ACCCGGAG | -0.231
CGTGGGGC | -0.227
AAGCTAAT | 0.0881
AGTTATCG | 0.116
CTGTGTAC | 0.0205
ACCAACAT | 0.237
GCCGCCTA | -0.281
CCGTACTC | -0.184

Sequence | PBM 8-mer E-score
GGTCACCA | -0.23
CTATCGAG | -0.0888
CAGATCCA | -0.0509
CAGGTGAA | 0.0422
CCAGCGAA | -0.048
CCAAAACC | -0.0346
ACTGTCTG | -0.0221
AAATAGTA | 0.288
GTCAACAA | 0.0471
AGCCAGCC | -0.299
CCCCTCCC | -0.431
ATGGCCCA | 0.00636
TAAAAGTA | 0.262
AATCAAGA | 0.0771
ATAGGACG | 0.0145
AGCCACCT | -0.136
GGCTACCA | -0.214
ATGATTAG | 0.157
TGATAAAA | 0.258
GATTTCAA | 0.0191
GGTTCTGA | -0.112
GCATGCGA | -0.143
GCCGTGAC | -0.222
CGTTACGA | -0.0963
CGTCGCAG | -0.0746

Sequence | PBM 8-mer E-score
AGCCCAAC | -0.251
AGTCATCA | -0.0305
ATCGACTC | -0.064
CAATGATG | 0.113
CCCGGTGA | -0.208
GGATGGTA | 0.0459
GGACATTA | 0.103
ACGTAACC | -0.0939
CATCTTGA | -0.092
ACTGACCG | -0.1
AACGCATT | 0.127
ATCTTGAG | 0.11
CAGGGCGA | -0.194
GGGACGAA | -0.231
GGAGATAC | -0.133
CGTGACAA | -0.0139
CTTCCCGA | -0.073
CGAATACG | 0.105
CAACCTCG | -0.176
CGGCATCC | -0.205
AAGCAGGT | 0.0586
ACCGGAGC | -0.275
CTTCCCTC | -0.21
ACCTCCCT | -0.442
ACGCCACA | -0.0172

Sequence | PBM 8-mer E-score
CTGTAAAC | 0.0598
TAGAGGGA | -0.155
CGTATACC | -0.0453
CCAATCTA | 0.147
AATCCCGC | -0.0144
AGTAAGTC | 0.0956
TACCAACA | 0.0228
TCTGTGCA | -0.0618
TGGAGAAA | -0.0322
GCCTGACA | -0.188
CTATCTAC | 0.0623
AACATTTG | 0.103
CTAGCTTC | -0.25
ACATCTCT | 0.0261
AGTCGTCA | -0.101
GGCAAAAA | 0.0151
AAAACGCG | 0.148
GGAGGGTA | -0.136
CCCTACAA | -0.153
TGGCCAAA | -0.19
ACCACCTC | -0.1
GATCGTAC | -0.0743
AAGGTCCG | -0.195
CAGTTTCC | -0.0848
GATTCGCC | -0.089

Sequence | PBM 8-mer E-score
CGCCAGTA | -0.0222
GCATGTCA | 0.0367
CCCTCCGG | -0.369
GGCCGAAC | -0.196
CGTCGAAA | 0.147
GCTTCAAC | -0.0192
GAGGTGAA | -0.212
CCAAAGAG | -0.0873
TCGTATAA | 0.148
AAATAACC | 0.375
AATTTTGG | 0.205
AGAGGAGG | -0.347
ATACGCCA | 0.108
CACGCCCA | -0.108
CGGCGGGA | -0.215
AAGGAATA | 0.129
CAACCGTG | -0.00442
CCCACATC | -0.0956
ACGAGTAC | 0.047
CCTCAGCC | -0.31
GGTCAACC | -0.0984
AGATTACA | 0.211
GCTAAACC | -0.0867
GAGAGCAA | -0.125
AGCTTTAA | 0.191

Sequence | PBM 8-mer E-score
GAATCGTA | -0.0702
GTTCGCGA | -0.0992
ACTAAGAC | 0.124
AGTTATAC | 0.393
ACCGAGAC | -0.139
GAGCCGCC | -0.287
CTGTCCCA | -0.0197
CTCGTCAA | -0.174
ATGGAATC | -0.0791
CTCACCAA | 0.0522
ACGTGCGA | -0.0735
ATTTGTCC | 0.0705
ATCAAGAG | 0.0564
CAGCACCC | -0.198
GCTGGCAC | -0.298
ATTGGACC | -0.203
GTCTCTAA | 0.00249
CCAAAGCC | -0.213
CCGTCTAG | -0.262
ACACAGTC | -0.0997
AACCGCAA | 0.00741
CTGATGCC | -0.231
CTTTCTCC | -0.155
CTAATCAC | 0.0359
ACTACATA | 0.223

Sequence | PBM 8-mer E-score
GTTCCCGA | -0.223
GCCCTAAC | -0.154
AAGGACTG | -0.152
CTCATGGC | -0.172
TAGCTATA | 0.241
AATGAACA | 0.2
GTATACGA | 0.184
CATTTTCC | 0.0485
GGCACGCC | -0.365
CAAAAGGC | -0.139
TTAAACAA | 0.321
CATCCGGG | -0.263
GAACTTTA | 0.346
CGGGCCTA | -0.32
GACGAGCC | -0.303
ATGTATAC | 0.332
CATTGATC | 0.161
GCATGCTA | -0.195
ACGACCCA | -0.13
